Structures are written as SMILES. Hit rate of the full screen: of about 340,000 compounds, about 6,900 (2%) were called active. No stated cut-off is given here; in the data, active means inhibition above about 30%; inactive means below that, where a call was filed. This is a selection; strong and weak results do not stand in their true shares. The source gives no active or inactive call for entries shown without one.

This is an account of results in PubChem BioAssay AID485344 (National Center for Advancing Translational Sciences (NCATS), 2010).

Sequence of UniProt P14416 (P14416 whole entry, looked up): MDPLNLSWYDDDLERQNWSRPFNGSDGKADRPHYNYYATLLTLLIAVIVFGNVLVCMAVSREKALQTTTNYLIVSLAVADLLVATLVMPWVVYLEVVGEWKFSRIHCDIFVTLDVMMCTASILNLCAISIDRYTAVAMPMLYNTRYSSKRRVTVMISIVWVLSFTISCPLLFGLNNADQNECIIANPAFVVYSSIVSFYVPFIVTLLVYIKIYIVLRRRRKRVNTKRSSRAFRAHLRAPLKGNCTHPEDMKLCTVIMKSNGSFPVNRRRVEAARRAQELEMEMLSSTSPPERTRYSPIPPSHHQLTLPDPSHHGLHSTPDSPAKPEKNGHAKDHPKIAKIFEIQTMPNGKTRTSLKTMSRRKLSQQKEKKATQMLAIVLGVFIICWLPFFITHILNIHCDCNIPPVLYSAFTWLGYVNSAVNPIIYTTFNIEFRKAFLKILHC

The test deals with D(2) dopamine receptor (Homo sapiens) (UniProt P14416). The test is described as follows: HTS Assay for Allosteric Antagonists of the Human D2 Dopamine Receptor: Primary Screen for Antagonists. Further: 0% is about no effect. The conditions noted are these: HEK293 TREx D2 cells, calcium flux, dopamine EC80; at 10 µM; stronger effect = higher value. A digest of the protocol:
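Compounds are added to dye-loaded, induced HEK293 T-REx cells coupled to calcium release via D2; after a 3 min kinetic read an EC80 dopamine stimulus is given and fluorescence is recorded for 3 more min.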
In general terms: A change in cytosolic calcium serves as a functional read-out for many receptors and channels.
Consider `CCOc1ccc(-n2nc3ccc(NC(=O)c4ccc(OC)c(Cl)c4)cc3n2)cc1`, for which the inhibition was -5.29%.

As to `Cc1ccc2c(=O)cc(C(=O)Nc3sc4c(c3C(=O)NCC3CCCO3)CCC4)oc2c1` (stereo not drawn), the inhibition amounted to 16%. As for `CCC(C(=O)NCc1ccccc1OC)n1nc(C)n2c(cc3occc32)c1=O` (stereo not drawn), the figure is 3.08%; as for `Cc1oc(-c2ccccc2Cl)nc1CS(=O)(=O)CC(=O)NCc1ccc(F)cc1`, 11.9%. As for `O=c1c(=O)n(-c2ccc(F)c(F)c2)ccn1Cc1ccc(F)cc1Cl`, the figure is 6.26%; as for `CCOc1ccccc1NC(=O)CN(C)S(=O)(=O)c1ccc(C(=O)N2CCOCC2)s1`, 9.58%. In the case of `COc1ccc(C)cc1NC(=O)C1CCCN(c2ncnc3onc(C)c23)C1` (stereo not drawn) it was 3.64%. `CCOC(=O)c1noc2ncn(CC(=O)Nc3cccc(C(F)(F)F)c3)c(=O)c12`: the inhibition turned out to be 6.06%.

As to `CCc1nn(CC(=O)N2CCCCC2)c(=O)c2cc3occc3n12`, the inhibition was -3.71%.

As for `CCCc1nnc(NC(=O)c2nc(SCC)ncc2Cl)s1`, the inhibition was -8.82%.

With `CCOC(=O)C1=C(CS(=O)(=O)c2ccc(F)c(C)c2)NC(=O)NC1c1ccccc1OC` (stereo not drawn), the inhibition was -13.1%.

With `COc1ccc(Cl)cc1C(=O)NCCN(C)C`, the inhibition is active: 33.5%. As for `CCOc1ccc(NC(=O)N2CCN(c3nnc(C)c4c(C)n(-c5ccccc5)nc34)CC2)cc1`, the figure is -1.84%. In the case of `O=C(CCCSc1nnc(Nc2ccccc2F)s1)N1CCOCC1` it was active: 39.3%. For `COc1ccc(C(=O)c2c[nH]cc2-c2ccccc2)cc1`, the inhibition is active: 39.8%.

In the case of `COc1ccc(C)cc1NC(=O)C1CCN(S(=O)(=O)c2cc(Br)cc3c2N(C(C)=O)CC3)CC1`, the inhibition was 4.12%. For the compound `CCc1nn2c(=O)cc(COC(=O)c3ccccc3)nc2s1`, the inhibition is -9.84%. As for `CCOC(=O)CNC(=O)N1CCCN(S(=O)(=O)c2ccc3c(ccn3CC)c2)CC1`, the figure is 27.2%; as for `Cc1ccc(-c2cc3ncc4c(n3n2)-c2cc(F)ccc2OC4)cc1`, 12.4%. In the case of `CCOc1ccccc1NC(=O)N(Cc1ccc(C)o1)C1CCN(C(C)=O)CC1` it was -2.14%. In the case of `COc1ccc(C)c2sc(N3CCN(C(=O)c4cccc(F)c4)CC3)nc12` it was -5.86%. Consider `CCc1ccc(C(=O)c2cn(CC(=O)Nc3cccc(OC)c3)c3cc4c(cc3c2=O)OCO4)cc1`, for which the inhibition came to 0.857%.

As for `O=C(CSc1nnc(-c2ccc(Cl)cc2)o1)c1ccc([N+](=O)[O-])cc1`, the inhibition was -3.93%. `O=C(c1ccccc1Br)N(Cc1ccco1)Cc1ccco1`: the inhibition came out at 5.47%. As for `C/C(=N\N(C)C)c1ccc(OCCOc2ccc([N+](=O)[O-])cc2)cc1`, the figure is active: 33.5%; as for `CCn1c(SCc2c(F)cccc2Cl)nc(=O)c2c(C(=O)OC)cc(C3CC3)nc21`, -7.1%. In the case of `Cc1cc(Cl)ccc1NC(=O)Cc1ccc(NC(=O)N2CCCCc3ccccc32)cc1` it was 4.71%. In the case of `COC(=O)c1cccc(NC2=NS(=O)(=O)c3ccccc32)c1` it was -6.79%; in that of `COc1ccc(OC)c(NC(=O)C2Cc3ccccc3CN2S(=O)(=O)c2ccc(F)cc2)c1` (stereo not drawn), 16.4%.

Consider `CC1=C(C(=O)Nc2ccc(Cl)cc2)C(c2ccccc2F)n2nc(SCc3cccc(Cl)c3)nc2N1` (stereo not drawn), for which the inhibition was 16.8%. In the case of `Cc1cc(C)nc(/N=C(\N)Nc2ccc([N+](=O)[O-])cc2)n1` it was active: 36.8%; in that of `CCc1ccc(CNC(=O)c2cc3n(n2)CCCN(Cc2ccccc2)C3=O)cc1`, 6.77%. Take `Cc1ccc(Cn2c(=O)n(CCc3ccc(Cl)cc3)c(=O)c3ccccc32)cc1`: the inhibition was 3.35%. As for `CCOC(=O)C1CCCN(C(=O)c2cc(-c3ccc(F)cc3)nc3ccccc23)C1` (stereo not drawn), the figure is active: 47.3%; as for `Cc1ccc(-n2ncc3c(NC(C)c4ccccc4)ncnc32)cc1` (stereo not drawn), -15.2%; as for `COc1ccc(NC(=O)Cn2c(=O)n(Cc3ccccc3OC)c(=O)c3cccnc32)cc1Cl`, -6.32%.

As for `O=S(=O)(c1ccc(Cl)cc1)c1nc(-c2cccs2)oc1SCc1ccc(F)cc1`, the inhibition is -1.95%. As for `COc1cccc(CNC(=O)Cc2c(C)c3c(cc(C)c4c(C)c(C)oc43)oc2=O)c1`, the figure is 3.85%; as for `CC1(NC(=S)Nc2ccc3ccccc3c2)CCS(=O)(=O)C1` (stereo not drawn), active: 36.6%. Turning to `COc1ccc(NC(=O)CCN2CCN(Cc3ccccc3)CC2)c(OC)c1`, the inhibition was active: 41%. In the case of `CCC(C)c1ccccc1OCCCCN1CCCC1` (stereo not drawn) it was active: 64.7%; in that of `Cn1nnc2c(NCc3ccc(Cl)cc3)ncnc21`, -16.2%; in that of `COc1ccccc1C1CCN(c2cc(O)ccc2[N+](=O)[O-])CC1`, active: 34.4%.

With `COc1ccc(C2(Nc3cccc(F)c3)C(=O)c3ccccc3C2=O)cc1`, the inhibition is -8.96%.

For the compound `COCCNC(=O)C1CCN(C(=O)c2cc3sccc3n2Cc2ccc(Cl)cc2)CC1`, the inhibition was -22.7%.

Turning to `CCCN(CCC)CCCNC(=O)C1CCCN(Cc2nc(-c3ccc(Cl)cc3)oc2C)C1` (stereo not drawn), the inhibition is -14%. Take `O=C(NCC1CCCO1)c1cccc(S(=O)(=O)N2CCCCC2)c1` (stereo not drawn): the inhibition is active: 30.9%. In the case of `COc1ccccc1NC(=O)CSC1=Nc2ccccc2C2=NC(CCC(=O)NCc3ccco3)C(=O)N12` (stereo not drawn) it was 2.01%; in that of `O=C(NN=C1CCCC1)c1ccn[nH]1`, active: 41.7%. As for `O=c1ccc2cc(S(=O)(=O)Nc3ccc(F)c(Cl)c3)ccc2[nH]1`, the figure is -16.8%. In the case of `CCCC(C)NC(=O)C1CCN(C(=O)C2CC(=O)N(c3ccc(C)cc3)C2)CC1` (stereo not drawn) it was active: 33%; in that of `CCOc1ccc2nc(SCC(=O)Nc3ccc(F)cc3)nc(-c3ccccc3)c2c1`, 14%; in that of `CCOC(=O)Cc1ccc(NC(=O)N2CCSc3ccccc32)cc1`, -5.59%.

As to `Cc1ccc(-c2nc(CS(=O)CC(=O)NCc3ccccc3Cl)c(C)o2)cc1` (stereo not drawn), the inhibition stood at 1.13%.

With `Cc1cc(NC(=O)CCn2c(=O)c3cccn3c3cccnc32)ccc1Br`, the inhibition is -3.03%. As for `CCC(=O)N1c2ccccc2CC1C(=O)NCCc1cc(OC)c(OC)c(OC)c1` (stereo not drawn), the figure is 5.57%. As for `CC(=O)SCC[N+](C)(C)C`, the figure is active: 35.9%. As for `CCCN1CCN(c2nnc(-n3cccc3C(=O)Nc3cc(Cl)ccc3C)s2)CC1`, the figure is 10.1%; as for `O=C(CN1CCN(c2ccccn2)CC1)Nc1ccccc1Br`, active: 38%; as for `Cc1ccc(NC(=O)C2CCCN(S(=O)(=O)c3cccc4nsnc34)C2)cc1C` (stereo not drawn), -0.969%. Consider `COc1ccc(-n2c(=O)c3sc4ccccc4c3n(C)c2=O)cc1`, for which the inhibition came to 14.5%. As for `CN1CCN(c2nc(-c3ccccc3)ncc2S(=O)(=O)c2ccccc2)CC1`, the inhibition is active: 54.3%. Take `CCCn1c(CCC(=O)Nc2cc(C(=O)OC)cc(C(=O)OC)c2)nc2cccnc21`: the inhibition is -1.02%. As for `O=C(CSc1nc2sc3c(c2c(=O)[nH]1)CCCC3)NCCO`, the figure is active: 42.2%. As for `COC(=O)c1scc(-c2ccc(C)cc2)c1S(=O)(=O)Nc1cc(Cl)c(OC)cc1OC`, the figure is 7.39%; as for `CCCn1c(CCC(=O)Nc2cc(OC)cc(OC)c2)nc2cccnc21`, 0.681%.

As to `CCOC(=O)c1[nH]cnc1C(=O)Nc1cccc(OC)c1`, the inhibition came to 6.4%. As for `Cc1ccccc1CCNC(=O)c1ccc2c(c1)nc1n2CCOC1`, the figure is -3.92%; as for `Cc1ccc(-c2[nH]ncc2CN2CCN(C(=O)c3cccs3)CC2)cc1C`, active: 66.5%.

As for `CCCCN(CCCC)CCCNC(=O)Cn1cc2c(n1)-c1c(oc(C(=O)N3CCCC3)c1C)CC2`, the inhibition came to 1.95%.

For the compound `CCOC(=O)c1ccc(N2C(=O)c3[nH]nc(-c4ccc(C)cc4)c3C2c2cccs2)cc1` (stereo not drawn), the inhibition came out at 5.33%. As to `CSc1ncc(C(=O)Nc2ccccc2C(F)(F)F)c(-c2ccccc2)n1`, the inhibition is -7.29%. In the case of `COc1ccc(N(CC(=O)Nc2c(C)n(C)n(-c3ccccc3)c2=O)S(=O)(=O)c2ccc(C)cc2)cc1OC` it was active: 34.6%. As for `CCCc1nc2nc(C)c(NS(=O)(=O)c3ccc(CC(C)C)cc3)c(=O)n2[nH]1`, the figure is -7.82%; as for `CCCCn1cc(S(=O)(=O)c2cc(C)ccc2C)c(=O)c2cc(F)c(N3CCC(C)CC3)cc21`, 11.2%; as for `Cc1nnc(SC(C)C(=O)NCC2CCCO2)s1` (stereo not drawn), active: 31.1%. In the case of `CCOC(=O)c1c(C)[nH]c(C)c1S(=O)(=O)N1CCC(C(=O)Nc2ccc(OCC)cc2)CC1` it was -2.97%; in that of `CCc1ccccc1NC(=O)Nc1c(C)n(C)n(-c2ccccc2)c1=O`, 5.58%; in that of `CCCC(=O)Nc1cc2nn(-c3ccccc3)nc2cc1C`, 8.1%. As for `Cc1ccc(C)c(N2CCN(C(=O)CN3C(=O)COc4ccc(S(=O)(=O)N5CCCC5)cc43)CC2)c1`, the inhibition was 9.36%. Consider `CCc1cccc(NC(=O)CN(c2ccc(C)c(C)c2)S(=O)(=O)c2ccsc2C(=O)OC)c1`, for which the inhibition was 8.54%. As for `COc1ccc(C(=O)NCC(c2ccco2)S(=O)(=O)c2ccc(F)cc2)cc1` (stereo not drawn), the figure is 8.74%; as for `N#CCCN1CCN(Cc2cc(-c3ccccc3)ccc2O)CC1`, active: 65.1%; as for `CCc1ccccc1NS(=O)(=O)c1ccc2nc(-c3ccccc3)[nH]c2c1`, 2.04%.

Regarding `CC(C)OCCCNC(=O)C(=O)Nc1c2c(nn1-c1ccccc1)CS(=O)(=O)C2`, the inhibition is 17.9%. Regarding `COc1ccc2c(c1)C=C(CN1CCN(Cc3ccccc3C)C(CCO)C1)CO2` (stereo not drawn), the inhibition was active: 57.8%. In the case of `Cc1ccc2c(c1)N(CC(=O)NCCc1ccccc1)C(=O)CO2` it was -3.71%; in that of `Cc1ccc(N2C(=O)c3n[nH]c(C)c3C2c2ccc(Cl)cc2)cc1` (stereo not drawn), 0.483%; in that of `CCc1ccc(-n2c(=O)c3c4c(sc3n(Cc3cc(=O)n5c(C)cccc5n3)c2=O)CCC4)cc1`, 10.1%. As for `CCOC(=O)c1[nH]c2c(c1Cc1ccccc1OC)C(=O)CC(c1ccc(OC)cc1)C2` (stereo not drawn), the figure is -7.79%; as for `CCOC(=O)c1ccccc1NC(=O)Cn1ncc2c1-c1ccccc1OC2`, -8.08%; as for `Cc1cc(C)cc(NC(=O)CSc2oc(-c3ccccc3)nc2S(=O)(=O)c2ccc(Cl)cc2)c1`, 3.87%. As for `Cc1ccc(NC(=O)Cn2nc(C(F)(F)F)c3c2CCCC3)cc1C`, the figure is -6.56%.

With `O=C(Cn1c(=O)n(CCc2ccccc2)c(=O)c2cccnc21)Nc1ccc(F)cc1`, the inhibition is -10.5%. Take `CCCCNC(=O)C1CCC(Cn2c(=O)c3sccc3n(Cc3ccccc3)c2=O)CC1` (stereo not drawn): the inhibition worked out at 14.1%.

With `Cc1cc(C)c(NC(=O)c2nc3ccccc3nc2N2CCCCC2)c(C)c1`, the inhibition is -1.92%.

In the case of `CCC(=O)N1CCc2cc(S(=O)(=O)NC(C(=O)NCCc3ccc(OC)c(OC)c3)C(C)C)ccc21` (stereo not drawn), the inhibition is -16.3%. As for `CCCCNC(=O)CSc1nc2cc3c(cc2c(=O)n1CCCC(=O)NCCc1ccc(OC)c(OC)c1)OCO3`, the figure is -5.9%.

A word on the inhibition: it is the drop in the measured response relative to a control, in per cent.
